Experimental data as given in the supplement of paper PMC10126150.
Sequences with one replicate were seen in a single cluster, so their values are uncertain.
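Also: ATP exposure 15 min at 22 °C before imaging.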

What follows are sequences tested on ATP (assay: switch fluorescence ratio, 500 uM ATP over buffer (Cy3 cluster intensity, sum of 5 cycles each) (fold (ratio)); higher = stronger signal-on switching upon ATP binding; sequences stand for … in TCGTCGGCAGCGTCAGATGTGTATAAGAGACAGTTTTTTTTTTTTTTTTTTTTTTTTT…TC). Conditions: aptamer strand: ATP DNA aptamer (quencher-CACCTGGGGGAGTATTGCGGAGGAAGG + anchor), 100 nM annealed; ATP concentration: 500 uM; one replicate.
Outline: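 Switching-strand clusters labelled with Cy3 on a modified Illumina MiSeq flow-cell were annealed to 100 nM quencher-labelled ATP aptamer, imaged in selection buffer, and re-imaged after 15 min with 500 uM ATP at 22 °C. This was done over five cycles with NaOH stripping and re-annealing in between. The fluorescence ratio is summed target-cycle over summed buffer-cycle Cy3 intensity per cluster, averaged per switch-domain sequence, excluding clusters outside 100-1000 RFU.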
For TTTAACTGAT, the switch fluorescence ratio was 1.01.
AAGAACCCCA gave a switch fluorescence ratio of 1.02.
With TGGAGATGGG the switch fluorescence ratio was 0.995.
AGACCGGGAG gave a switch fluorescence ratio of 1.01.
With AGATTCTCTA the switch fluorescence ratio was 0.969.
With AACAAATTGA the switch fluorescence ratio was 1.03.
GCGGAAGCCC was tested, and the switch fluorescence ratio was 1.04.
In the case of CGGTCGGCGG, the switch fluorescence ratio is reported as 0.962.
In the case of ATTGCGAACC, the switch fluorescence ratio is reported as 1.05.
Work on CACGTTTTAC yielded a switch fluorescence ratio of 1.3.
For AGGAGATAGG, the switch fluorescence ratio was 1.01.
For GATTCCGGGC, the switch fluorescence ratio was 1.12.
TGAGTTGCCT showed a switch fluorescence ratio of 1.03.
With TCGTCTCTCA the switch fluorescence ratio was 1.03.
In the case of AATTTCGATT, the switch fluorescence ratio is reported as 0.994.
CACGTCTCCC was tested, and the switch fluorescence ratio was 1.16.
ACATAGAATA gave a switch fluorescence ratio of 1.02.
CGAAATTGCC gave a switch fluorescence ratio of 0.986.
Work on TAAACTCAAT yielded a switch fluorescence ratio of 1.03.
CTGCTTCGTT showed a switch fluorescence ratio of 0.987.
With CAGCGAACGC the switch fluorescence ratio was 0.996.
Work on GAGTAATAAG yielded a switch fluorescence ratio of 0.99.
AGAGACGGTT showed a switch fluorescence ratio of 0.999.
With GGAAATAGTA the switch fluorescence ratio was 0.971.
Sequence CCGGCTATAT has a switch fluorescence ratio of 2.72.
AGCTCATCGG gave a switch fluorescence ratio of 0.981.
With GAGTTAGAGT the switch fluorescence ratio was 0.992.
GGTCATGGCT was tested, and the switch fluorescence ratio was 0.972.
For TACACGTGGA, the switch fluorescence ratio was 1.07.
TAATCCCGAC was tested, and the switch fluorescence ratio was 1.04.
For TATCCGGGGC, the switch fluorescence ratio was 1.04.
With GCTCTACGGA the switch fluorescence ratio was 1.08.
Work on AACGAAGCCC yielded a switch fluorescence ratio of 1.16.
Work on GATGCGCCT yielded a switch fluorescence ratio of 1.02.
With CCGTTTCTGT the switch fluorescence ratio was 1.03.
TAACCTTTAT gave a switch fluorescence ratio of 1.04.
In the case of GCCGTGACTG, the switch fluorescence ratio is reported as 0.996.
Work on ACACTGTCTG yielded a switch fluorescence ratio of 1.01.
Sequence CGAGAAAAAA has a switch fluorescence ratio of 0.996.
GGCAGCGGCT was tested, and the switch fluorescence ratio was 0.971.
With ATGGTCAACA the switch fluorescence ratio was 1.03.
Sequence GATATGGACA has a switch fluorescence ratio of 1.03.
With TTAGTGTGGC the switch fluorescence ratio was 0.985.
ACCACTTAGT was tested, and the switch fluorescence ratio was 1.07.
Sequence AAGTGGCTCC has a switch fluorescence ratio of 0.993.
Sequence GGATGTATCG has a switch fluorescence ratio of 1.02.
TTACACTTGC was tested, and the switch fluorescence ratio was 1.12.
For AGAATGCGAA, the switch fluorescence ratio was 0.975.
For TTAAATTTCA, the switch fluorescence ratio was 0.985.
For TACGGAGGG, the switch fluorescence ratio was 1.04.
CGGCAAGCGC was tested, and the switch fluorescence ratio was 1.34.
For GCAAGGTCAC, the switch fluorescence ratio was 1.07.
Work on TATCGCGGAT yielded a switch fluorescence ratio of 0.987.
For TTAGACGTAT, the switch fluorescence ratio was 1.
For CAACAGGACT, the switch fluorescence ratio was 1.09.
With CCGCTGTAG the switch fluorescence ratio was 1.32.
GGAAACCCCC was tested, and the switch fluorescence ratio was 1.38.
AGCTTCTA showed a switch fluorescence ratio of 1.03.
TGGGCCAGCT showed a switch fluorescence ratio of 0.996.
Sequence AGTATGTGTT has a switch fluorescence ratio of 0.985.
Sequence ATATTTGGAC has a switch fluorescence ratio of 1.05.
CTGGGGTTAG was tested, and the switch fluorescence ratio was 0.972.
ATGATTATCG was tested, and the switch fluorescence ratio was 0.968.
Sequence TGTTCCAATT has a switch fluorescence ratio of 1.02.
For CCTAGCTTGA, the switch fluorescence ratio was 1.05.
ACGAACCGAT showed a switch fluorescence ratio of 1.24.
For AGTGTGCTGC, the switch fluorescence ratio was 1.02.
For GTACGACGTT, the switch fluorescence ratio was 1.04.
In the case of AGTACGAGGG, the switch fluorescence ratio is reported as 0.993.
With CGTATGCCTC the switch fluorescence ratio was 0.949.
For CTCTGGTCAC, the switch fluorescence ratio was 1.14.
GTGATAGTCT showed a switch fluorescence ratio of 1.07.
TGGTGGCTGC gave a switch fluorescence ratio of 0.975.
ATGTCTAACA was tested, and the switch fluorescence ratio was 0.992.
ATCTGGATGC was tested, and the switch fluorescence ratio was 1.05.
AAAGGTAAGT was tested, and the switch fluorescence ratio was 1.02.
Work on TCCGTTACCG yielded a switch fluorescence ratio of 1.04.
In the case of CGTTGCGGTT, the switch fluorescence ratio is reported as 0.99.
For TATTTCAGCC, the switch fluorescence ratio was 0.975.
CCTAATCCTC gave a switch fluorescence ratio of 1.1.
Sequence CTGTGAAGGT has a switch fluorescence ratio of 1.02.
Work on CGGATCGTTC yielded a switch fluorescence ratio of 1.02.
In the case of CTCCGGCGTA, the switch fluorescence ratio is reported as 1.17.
Work on GTAAGCCAGC yielded a switch fluorescence ratio of 1.01.
TTGTGTCGTG was tested, and the switch fluorescence ratio was 0.948.
TAGTGGTACC was tested, and the switch fluorescence ratio was 0.956.
TTGTAAAGGA showed a switch fluorescence ratio of 0.975.
With CCTAGGAGGG the switch fluorescence ratio was 1.04.
For CCTAAAAAAT, the switch fluorescence ratio was 1.04.
For CATTATGCGC, the switch fluorescence ratio was 0.995.
Work on CCTTAGGCGT yielded a switch fluorescence ratio of 1.04.
GCCATCGTTC gave a switch fluorescence ratio of 0.976.
Work on ATGTGATTTC yielded a switch fluorescence ratio of 0.973.
For GAGCGGGGTT, the switch fluorescence ratio was 1.01.
In the case of ATACCGCTCG, the switch fluorescence ratio is reported as 1.01.
Sequence AATCTTAGA has a switch fluorescence ratio of 1.
CTTGGCGTAT was tested, and the switch fluorescence ratio was 1.02.
CTATATACAG showed a switch fluorescence ratio of 1.05.
GACGTAGGAG showed a switch fluorescence ratio of 1.03.
With CCCAGAGCAC the switch fluorescence ratio was 2.66.
In the case of CGGGAACGTG, the switch fluorescence ratio is reported as 1.05.
GGTGAGTGTG was tested, and the switch fluorescence ratio was 0.999.
With GAACGCTCAC the switch fluorescence ratio was 3.9.
TATGAGGGTA showed a switch fluorescence ratio of 0.969.
With TGGCTAGTTC the switch fluorescence ratio was 0.983.
GCACACCTAA showed a switch fluorescence ratio of 1.09.
In the case of TTGGGATATA, the switch fluorescence ratio is reported as 1.56.
TGCTGGTAAA gave a switch fluorescence ratio of 1.01.
With GCGTACAAT the switch fluorescence ratio was 0.993.
In the case of GCCTACTTTT, the switch fluorescence ratio is reported as 1.01.
For GCGTAATCTC, the switch fluorescence ratio was 2.15.
Sequence ACAAATTACT has a switch fluorescence ratio of 1.07.
With TTTCTACTTA the switch fluorescence ratio was 1.08.
TCGCCTTCAG was tested, and the switch fluorescence ratio was 1.04.
CGGTGACTCT gave a switch fluorescence ratio of 1.02.
TGAAAGACGA was tested, and the switch fluorescence ratio was 1.02.
With TGACCTCCAC the switch fluorescence ratio was 1.39.
TATCAACGCG was tested, and the switch fluorescence ratio was 1.01.
With ATGTTGATGG the switch fluorescence ratio was 0.999.
Work on ATAGCGCAGG yielded a switch fluorescence ratio of 1.04.
Sequence ATGACCATTA has a switch fluorescence ratio of 0.966.
TTCTCATTAT was tested, and the switch fluorescence ratio was 0.998.
GCTCACATGA was tested, and the switch fluorescence ratio was 1.02.
Sequence AGTAATTAG has a switch fluorescence ratio of 0.969.
For AGTAATGTT, the switch fluorescence ratio was 0.99.
TTAATTAAA was tested, and the switch fluorescence ratio was 0.913.
TTCGGCAGGG gave a switch fluorescence ratio of 0.984.
GCTATTATA gave a switch fluorescence ratio of 1.04.
GATCATATGG showed a switch fluorescence ratio of 1.06.
Sequence GAGAATTTT has a switch fluorescence ratio of 0.938.
With TTGAGTTTCA the switch fluorescence ratio was 0.976.
In the case of AGCCGGCATG, the switch fluorescence ratio is reported as 0.991.
ATTGGTTATA showed a switch fluorescence ratio of 0.946.
In the case of TTGGTCGGCG, the switch fluorescence ratio is reported as 0.906.
In the case of AGGCGTGAAT, the switch fluorescence ratio is reported as 1.05.
CACTAATTAT gave a switch fluorescence ratio of 1.01.
GGGCAATGAA was tested, and the switch fluorescence ratio was 1.03.
Sequence CCCTAGTGCA has a switch fluorescence ratio of 1.18.
Work on CTTAATCGAT yielded a switch fluorescence ratio of 0.993.
TTGACCGATG was tested, and the switch fluorescence ratio was 0.965.
With TAGGATCTGT the switch fluorescence ratio was 0.969.
With AACCCCATCT the switch fluorescence ratio was 1.05.
Sequence TGCCTCTGGG has a switch fluorescence ratio of 0.96.
Sequence ACTTTTTTTC has a switch fluorescence ratio of 0.977.
CGACTGGCTT was tested, and the switch fluorescence ratio was 1.09.
CTAGATAGTT gave a switch fluorescence ratio of 1.
For GATCGCAAGG, the switch fluorescence ratio was 1.08.
AGATCACCGT gave a switch fluorescence ratio of 0.996.
Work on GAAAGGTAGA yielded a switch fluorescence ratio of 1.05.
GCCGGCAGT was tested, and the switch fluorescence ratio was 1.02.
Sequence GTTTGTAAAT has a switch fluorescence ratio of 0.977.
AAATAGGGC was tested, and the switch fluorescence ratio was 1.01.
Sequence GCAAGTAACG has a switch fluorescence ratio of 1.05.
For GGCACTAGAG, the switch fluorescence ratio was 1.
Work on GCATGATATC yielded a switch fluorescence ratio of 1.07.
With TAAGACTGTA the switch fluorescence ratio was 0.909.
For GTGATTAGTA, the switch fluorescence ratio was 1.
